The whole screen tested about 270,000 compounds, of which about 620 (0.23%) were called active. The inconclusive results got no clear call from the source; some entries with a clear call stand among them for comparison. Calls come from the whole dose curve; as a rule, active = well fitted inhibition curve with a large enough effect in the polarisation, with a control signal flat (not every such curve was filed as active); inconclusive = small, poorly fitted or top-dose-only effect, or effect the other way, or a change in a side signal; inactive = no such curve, though single readings can be large or run the other way; the % refers to the polarisation. Potencies beside an inconclusive call are fits to weak or partial responses and may not hold up. A note “side channel” means that the fit belongs to a control or component signal, not to the main read-out.
Target: Menin (Homo sapiens) (UniProt O00255)
Assay: qHTS Assay for Inhibitors Targeting the Menin-MLL Interaction in MLL Related Leukemias: Competition With Texas Red Labeled MLL-derived Mutant Peptide; for FP activity change, negative = inhibition: % of control where 0% means no effect
Details: fluorescence polarization; FP activity change, negative = inhibition: at 61.6 µM (top of the series)
From the text: qHTS Assay for Inhibitors Targeting the Menin-MLL Interaction in MLL Related Leukemias NIH Chemical Genomics Center [NCGC] NIH Molecular Libraries Probe Centers Network [MLPCN] MLPCN Grant: MH084875-01A1 Assay Submitter (PI): Jolanta Grembecka, Tomasz Cierpicki, University of Virginia Translocations of the MLL (Mixed Lineage Leukemia) gene are frequently found in human leukemias affecting both children and adults. Fusion of MLL to one of more than 60 genes results in generation of oncogenic proteins upregulating Hox genes, which are vital to blood cell development. Patients harboring fusion of the MLL gene suffer from aggressive leukemias and respond poorly to available therapies. All of the oncogenic fusion proteins have a preserved N-terminal fragment of MLL that has been identified to interact with menin. It has been recently discovered that association with menin is critical to the leukemogenic activity of the MLL fusion oncoproteins. Selective targeting of the menin-MLL interaction could provide an attractive therapeutic approach to develop novel drugs for MLL-related leukemias. Small molecules blocking the menin-MLL interaction should reverse the oncogenic potential of MLL fusion proteins. We have developed and optimized a fluorescence polarization-based assay for the identification of Menin-MLL inhibitors. The assay was run employing two different MLL-derived peptides. The present assay uses a 12 amino acid peptide labeled with fluorescein at its N-terminus. This peptide consists of the menin high affinity binding motif from MLL and is potently bound by menin. Another peptide with a mutated sequence, labeled with Texas Red, was used in parallel as a less stringent screen for inhibitors.
The Menin protein, the MLL-wild type (w.t.) derived peptide (N-terminal 12 amino acids), the MLL-derived peptide labeled with Texas Red and the MLL-w.t. peptide labeled with Fluorescein were kindly supplied by laboratory of Dr. Jolanta Grembecka, University of Virginia. All protein and peptide solutions were stored in single use aliquots at -80C. The Eu3+ Cyrptate-conjugated mouse monoclonal antibody anti-6 Histidine (Eu3+-AB) and the Streptavidin-XL665 conjugate (XL665) were purchased from Cisbio International (Bedford, MA). All antibody and XL665 conjugate solution stocks were stored in single use aliquots at -20C. The Buffer components for all assays were purchased from Sigma-Aldrich (St. Louis, MO) and Invitrogen (Carlsbad, CA). FP Assay Reagents: 1. FP reaction buffer: 50 mM Tris-HCl pH 7.5, 50 mM NaCl, 1mM DTT. Before use, 0.05% BSA is added. 2. Menin protein, MLL-w.t. labeled with fluorescein, MLL-mutant peptide labeled with texas red. Stored in singe use aliquots at -80C. 3. MLL-w.t. unlabeled peptide as positive control: 10 uM final in FP buffer. FP Assay Procedure: 1. Prepare Menin at 200 nM, MLL-w.t.-fluorescein at 25 nM, and MLL-mutant-texas red at 50 nM mixture in FP buffer. 2. Prepare Menin at 200 nM, MLL-w.t.-fluorescein at 25 nM, MLL-mutant-texas red at 50 nM, and 10 uM MLL-w.t. unlabeled mixture in FP buffer. 3. Prepare MLL-w.t.-fluorescein at 25 nM and MLL-mutant-texas red at 50 nM mixture in FP buffer. 3. Dispense 4 ul per well of reagent in step 1 in columns 2, 4 - 48 in a black 1536 well plate, dispense 4 ul per well of reagents from steps 2 and 3 in columns 1 and 3 respectively. Incubate plate at ambient for 15 minutes. 4. Transfer 23 nl per well of compound to plate and incubate at ambient for 1 hr. 5. Read fluorescence polarization for each label using the PerkinElmer Envision. Envision protocol for fluorescein: FITC FP Dual Enh Mirror, Excitation filter 480, Emission filter (1) P-pol 535, Emission filter (2) S-pol 535 Envision protocol for texas red: FP Dual Enh Mirror, Excitation filter 555, Emission filter (1) P-pol 632, Emission filter (2) S-pol 632
Potency is the fitted concentration of half-maximal effect; tags give direction and shape of the fitted curve or compound fluorescence and quenching.

UniProt O00255, sequence (O00255 whole entry, looked up): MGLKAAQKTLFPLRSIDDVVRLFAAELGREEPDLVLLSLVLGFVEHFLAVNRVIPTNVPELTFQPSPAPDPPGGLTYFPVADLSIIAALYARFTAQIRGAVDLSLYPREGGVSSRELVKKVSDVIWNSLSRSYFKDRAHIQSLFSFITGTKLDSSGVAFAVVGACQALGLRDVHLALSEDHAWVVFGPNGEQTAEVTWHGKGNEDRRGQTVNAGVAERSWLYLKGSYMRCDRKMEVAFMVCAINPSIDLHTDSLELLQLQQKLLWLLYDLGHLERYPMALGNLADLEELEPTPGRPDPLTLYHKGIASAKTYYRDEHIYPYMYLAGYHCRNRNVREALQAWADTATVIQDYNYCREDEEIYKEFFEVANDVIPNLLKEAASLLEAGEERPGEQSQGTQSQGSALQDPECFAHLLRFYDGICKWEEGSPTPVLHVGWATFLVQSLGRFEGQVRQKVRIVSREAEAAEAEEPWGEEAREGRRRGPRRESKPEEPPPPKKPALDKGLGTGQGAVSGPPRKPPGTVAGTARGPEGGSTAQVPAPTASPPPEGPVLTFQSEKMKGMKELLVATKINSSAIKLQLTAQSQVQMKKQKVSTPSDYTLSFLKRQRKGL

Potency, inconclusive:
Cc1ccc(NC(=O)CSc2nc3c(c(=O)n(C)c(=O)n3C)n2C)cc1 44.7 µM [inhibitor, single point]
O=C(Nc1ccc(N2CCN(Cc3ccccc3F)CC2)cc1)c1ccccc1[N+](=O)[O-] 25.1 µM [quencher, side channel, single point]
CCn1c(=S)sc2c(=O)n(-c3ccccc3)c(SC)nc21 35.5 µM [inhibitor, single point]
N#Cc1c(NC(=S)NC(=O)Cc2cccs2)sc2c1CCCCC2 25.1 µM [quencher, side channel, partial curve]
CCCC(=O)Nc1ccc2nc(SCC(=O)Nc3ccc(N4CCOCC4)c(Cl)c3)sc2c1 10 µM [quencher, side channel, partial curve, poor fit]
CCN(CC)C(=O)c1ccc(COc2ccccc2Cl)o1 7.94 µM [fluorescent, side channel, partial curve]
CN(C)c1ccc(/C=N/c2cc(-c3ccccc3)nn2-c2ccccc2)cc1 12.6 µM [quencher, side channel, partial curve]
Cc1c(Br)ccc(NC(=O)c2ccccc2[N+](=O)[O-])c1C 39.8 µM [inhibitor, single point]
CCOC(=O)C1CC2CC(C1)CN(C(=O)C1CCCCC1)C2 (centres undefined) 15.8 µM [fluorescent, side channel, partial curve]
COc1ccc(NS(=O)(=O)c2ccc(S(=O)(=O)N3CCCC3)cc2)cc1Cl 17.8 µM [quencher, side channel, partial curve]
Cc1ccc(-c2cn3cccnc3n2)cc1 17.8 µM [inhibitor, single point]
NS(=O)(=O)c1ccc(CCNC(=O)c2ccc(OCC3CCCO3)cc2)cc1 (centres undefined) 39.8 µM [fluorescent, side channel, single point]
CCOC(=O)C1(Cc2cccc(OC)c2)CCN(Cc2csc(C(C)=O)c2)CC1 6.31 µM [fluorescent, side channel, partial curve]
c1ccc(-c2csc(Nc3ccc4c(c3)OCCO4)n2)cc1 14.1 µM [quencher, side channel, partial curve]
O=[N+]([O-])c1cc([N+](=O)[O-])c(Oc2cc(F)ccc2F)cc1NN1CCCCC1 7.94 µM [inhibitor, full curve, poor fit]
Cc1cccc(CN2CCN(C(c3ccccc3)c3ccc(Cl)cc3)CC2)c1 (centres undefined) 1.58 µM [fluorescent, side channel, full curve, poor fit]
CS(=O)(=O)c1ccc(Cl)c(C(=O)NCC2CCCCC2)c1 0.631 µM [inhibitor, full curve, poor fit]
O=C(Cc1ccc(-n2c(=O)c3ccccc3n(Cc3ccccc3Cl)c2=O)cc1)NCC1CCCO1 (centres undefined) 25.1 µM [fluorescent, side channel, partial curve]
CS(=O)(=O)N1CCc2cc(C(=O)Nc3ccc(Br)cc3)ccc21 35.5 µM [fluorescent, side channel, single point]
O=C(O)c1cccc(N/N=C/c2cccc3ccccc23)c1 28.2 µM [quencher, side channel, partial curve]
O=C(NNc1c2ccccc2nc2ccccc12)c1cccc(O)c1 25.1 µM [quencher, side channel, single point]
CC(=O)Nc1ccc(NC(=O)CC(NC(=O)c2ccccc2)c2ccccc2)cc1 (centres undefined) 35.5 µM [fluorescent, side channel, single point]
COc1cc(C(=O)N/N=C/c2ccc(OC(=O)c3ccccc3Cl)cc2)ccc1O 14.1 µM [quencher, side channel, partial curve]
CC(=O)N(/N=C1\Sc2ccccc2C1=O)c1cccc(C)c1 39.8 µM [inhibitor, partial curve, poor fit]
Cc1ccc(NC(=O)CCS(=O)(=O)c2cccc3nonc23)c(Cl)c1 25.1 µM [quencher, side channel, single point]
CCOC(=O)/C=c1\s/c(=C(\C#N)C(=O)OCC)n(-c2ccccc2)c1=O 25.1 µM [fluorescent, side channel, partial curve]
CCOc1ccc(/C=N/N(C)c2ccccc2)cc1OC 11.2 µM [quencher, side channel, partial curve]
Cc1cc(NC(=O)c2cc(-c3cccs3)on2)no1 20 µM [inhibitor, partial curve]
CCc1ccc(CN(C)Cc2nc(COc3ccccc3)no2)nc1 17.8 µM [inhibitor, single point]
c1ccc(CCCOCCC2CO2)cc1 (centres undefined) 28.2 µM [inhibitor, partial curve]
COc1ccc(CN2CCN(Cc3ccc4cc(F)ccc4n3)CC2CCO)c(C)c1C (centres undefined) 10 µM [fluorescent, side channel, partial curve]

FP activity change, negative = inhibition, inactive:
O=C(NCCc1ccccc1)c1ccc(CS(=O)(=O)c2ccc(Cl)cc2)o1 -6.42%
Clc1ccccc1Cn1nnc(-c2ccccc2)n1 -25.4%
COC(=O)C(c1ccc(OC)c(OC)c1)C1c2ccccc2C=C(C)N1C(=O)OC (centres undefined) -10.2%
O=C1CCC(C(=O)Nc2cccc(C(F)(F)F)c2)N1 (centres undefined) 0.525% [at 11.7 µM]
C[n+]1cccc(C(=O)NCC2CCCO2)c1 (centres undefined) -16.3%
CSc1ccccc1-c1nc(-c2ccncc2)no1 1.06%
CCCCCCCCCCCCCC[N+](C)(C)Cc1ccccc1 -16.2%
C/C(=N\NC(=O)c1cc(C)oc1C)c1ccc2ccccc2c1 -17.3%
